From the supplement of paper PMC10369915 come the findings set out here.

Some of the results follow. Cut-off read from the data, not from the text of the source: active = 3.2 or more and inactive = the rest. The signal is at background level for most entries.
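Note: displayed peptides selected on beads carrying the immobilized SH2 domain, with library peptides lacking any tyrosine serving as negative controls.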

One experiment has as its target SHP2 C-SH2 domain E139D. The experiment is described as follows: enrichment score (SH2-bound / input frequency) (ratio); bacterial display of known human phosphotyrosine sites (pTyr-Var adds point mutants) read by sequencing; higher = stronger binding; tyrosines were phosphorylated by kinases first. The settings on record: peptide library: pTyr-Var.
For EDKFMYSEFPQ [PTEN_Y240_F241S], the enrichment score is inactive: 0.694.
Still for that read-out and setting: for ECKHLYSRKEG [PTPN11_Y263_L261H] the value was inactive: 1.29; for EDKFMYLEFPQ [PTEN_Y240_F241L], inactive: 0.81.
The same measure, in the same setting: as for RCYVYYYSYLL [PTEN_Y177_R173C], the figure is inactive: 1.16; as for CYVYYYSYLLK [PTEN_Y178_R173C], inactive: 0.776.
Still for that read-out and setting: for ERNARYRTPKI [PTK2B_Y699] the value was inactive: 0.321.
In the case of DLDLTSIFPNI [PTEN_Y27_Y27S_YF], the enrichment score was inactive: 1.05.
Still for that read-out and setting: for RRFLFYFSFLL [PTEN_Y177_V175L_YF] the value was inactive: 0.296; for NHFKIHNLCAE [PTEN_Y68_Y68H_YF], inactive: 0.86; for TLNFFYQQVKS [PTK2_Y148], inactive: 1.21.
Regarding LFFFSYLLKNH [PTEN_Y180_V175L_YF], the enrichment score is inactive: 1.47.
Same read-out and setting: for NHYKIYNLCAE [PTEN_Y68] the value was inactive: 0.903; for RREGVYRNNID [PTEN_Y46_L42R], inactive: 0.218; for PFVFFYSFLLK [PTEN_Y178_R173P_YF], inactive: 1.51.
Same read-out and setting: for FGLDRYQCDCT [PTGS1_Y54] the value was inactive: 1.5.
Still for that read-out and setting: for HFVFFYSFLLK [PTEN_Y178_R173H_YF] the value was inactive: 1.39; for EDKFMYFEFPQ [PTEN_Y240], inactive: 1.07.
As for KNKNRSKNILP [PTPN11_Y279_Y279S], the enrichment score was inactive: 0.48.
On to ERNAHYRTPKI [PTK2B_Y699_R698H], for which the enrichment score was inactive: 0.612.

For the next experiment, the target named is SHP2 C-SH2 domain wild-type. The description is as above. As to conditions: peptide library: pTyr-Var.
As to EDKFMYSEFPQ [PTEN_Y240_F241S], the enrichment score was inactive: 0.583.
Same read-out and setting: as for ECKHLYSRKEG [PTPN11_Y263_L261H], the figure is inactive: 1.14; as for EDKFMYLEFPQ [PTEN_Y240_F241L], inactive: 0.838.
The same measure, in the same setting: for RCYVYYYSYLL [PTEN_Y177_R173C] the value was inactive: 1.04.
Consider CYVYYYSYLLK [PTEN_Y178_R173C], for which the enrichment score is inactive: 1.14.
Same read-out and setting: as for ERNARYRTPKI [PTK2B_Y699], the figure is inactive: 0.39.
Still for that read-out and setting: as for DLDLTSIFPNI [PTEN_Y27_Y27S_YF], the figure is inactive: 0.895.
As for RRFLFYFSFLL [PTEN_Y177_V175L_YF], the enrichment score is inactive: 0.273.
On the same count and under the same terms, for NHFKIHNLCAE [PTEN_Y68_Y68H_YF] the value was inactive: 0.864.
With TLNFFYQQVKS [PTK2_Y148], the enrichment score is inactive: 1.41.
As for LFFFSYLLKNH [PTEN_Y180_V175L_YF], the enrichment score was inactive: 1.31.
Same read-out and setting: as for NHYKIYNLCAE [PTEN_Y68], the figure is inactive: 0.833; as for RREGVYRNNID [PTEN_Y46_L42R], inactive: 0.348.
For the molecule PFVFFYSFLLK [PTEN_Y178_R173P_YF], the enrichment score was inactive: 1.22.
On the same count and under the same terms, for FGLDRYQCDCT [PTGS1_Y54] the value was inactive: 1.62; for HFVFFYSFLLK [PTEN_Y178_R173H_YF], inactive: 1.93; for EDKFMYFEFPQ [PTEN_Y240], inactive: 1.35.
Still for that read-out and setting: for KNKNRSKNILP [PTPN11_Y279_Y279S] the value was inactive: 0.573; for ERNAHYRTPKI [PTK2B_Y699_R698H], inactive: 0.567.

For a further experiment, the target named is SHP2 N-SH2 domain L43F. Described as above. As to conditions: peptide library: pTyr-Var.
Turning to EDKFMYSEFPQ [PTEN_Y240_F241S], the enrichment score was inactive: 0.746.
The same measure, in the same setting: as for ECKHLYSRKEG [PTPN11_Y263_L261H], the figure is inactive: 1.26; as for EDKFMYLEFPQ [PTEN_Y240_F241L], inactive: 0.941.
On to RCYVYYYSYLL [PTEN_Y177_R173C], for which the enrichment score is inactive: 0.875.
On the same count and under the same terms, as for CYVYYYSYLLK [PTEN_Y178_R173C], the figure is inactive: 0.898.
The same measure, in the same setting: for ERNARYRTPKI [PTK2B_Y699] the value was inactive: 0.406; for DLDLTSIFPNI [PTEN_Y27_Y27S_YF], inactive: 0.866; for RRFLFYFSFLL [PTEN_Y177_V175L_YF], inactive: 0.488.
With NHFKIHNLCAE [PTEN_Y68_Y68H_YF], the enrichment score is inactive: 0.88.
The same measure, in the same setting: as for TLNFFYQQVKS [PTK2_Y148], the figure is inactive: 1.32.
The same measure, in the same setting: for LFFFSYLLKNH [PTEN_Y180_V175L_YF] the value was inactive: 1.13; for NHYKIYNLCAE [PTEN_Y68], inactive: 0.82; for RREGVYRNNID [PTEN_Y46_L42R], inactive: 0.377.
As to PFVFFYSFLLK [PTEN_Y178_R173P_YF], the enrichment score was inactive: 1.49.
Still for that read-out and setting: as for FGLDRYQCDCT [PTGS1_Y54], the figure is inactive: 1.58; as for HFVFFYSFLLK [PTEN_Y178_R173H_YF], inactive: 1.62; as for EDKFMYFEFPQ [PTEN_Y240], inactive: 1.19.
Still for that read-out and setting: for KNKNRSKNILP [PTPN11_Y279_Y279S] the value was inactive: 0.411; for ERNAHYRTPKI [PTK2B_Y699_R698H], inactive: 0.502.

The next experiment addresses SHP2 N-SH2 domain T42A. The description is as above. The settings on record: peptide library: pTyr-Var.
For EDKFMYSEFPQ [PTEN_Y240_F241S], the enrichment score is inactive: 0.572.
Same read-out and setting: for ECKHLYSRKEG [PTPN11_Y263_L261H] the value was inactive: 1.08; for EDKFMYLEFPQ [PTEN_Y240_F241L], inactive: 0.722.
The same measure, in the same setting: for RCYVYYYSYLL [PTEN_Y177_R173C] the value was inactive: 0.73; for CYVYYYSYLLK [PTEN_Y178_R173C], inactive: 0.788.
On the same count and under the same terms, for ERNARYRTPKI [PTK2B_Y699] the value was inactive: 0.366; for DLDLTSIFPNI [PTEN_Y27_Y27S_YF], inactive: 0.705; for RRFLFYFSFLL [PTEN_Y177_V175L_YF], inactive: 0.323.
As for NHFKIHNLCAE [PTEN_Y68_Y68H_YF], the enrichment score is inactive: 1.01.
On the same count and under the same terms, as for TLNFFYQQVKS [PTK2_Y148], the figure is inactive: 1.18.
On to LFFFSYLLKNH [PTEN_Y180_V175L_YF], for which the enrichment score was inactive: 1.25.
Still for that read-out and setting: for NHYKIYNLCAE [PTEN_Y68] the value was inactive: 0.849; for RREGVYRNNID [PTEN_Y46_L42R], inactive: 0.392.
Still for that read-out and setting: as for PFVFFYSFLLK [PTEN_Y178_R173P_YF], the figure is inactive: 1.26; as for FGLDRYQCDCT [PTGS1_Y54], inactive: 1.36; as for HFVFFYSFLLK [PTEN_Y178_R173H_YF], inactive: 2.
Turning to EDKFMYFEFPQ [PTEN_Y240], the enrichment score was inactive: 1.12.
Same read-out and setting: as for KNKNRSKNILP [PTPN11_Y279_Y279S], the figure is inactive: 0.325.
Still for that read-out and setting: as for ERNAHYRTPKI [PTK2B_Y699_R698H], the figure is inactive: 0.536.

In the next experiment the target is SHP2 N-SH2 domain T52S. The experiment is described as above. The settings on record: peptide library: pTyr-Var.
As for EDKFMYSEFPQ [PTEN_Y240_F241S], the enrichment score was inactive: 0.596.
Same read-out and setting: for ECKHLYSRKEG [PTPN11_Y263_L261H] the value was inactive: 1.21.
Turning to EDKFMYLEFPQ [PTEN_Y240_F241L], the enrichment score was inactive: 0.711.
In the case of RCYVYYYSYLL [PTEN_Y177_R173C], the enrichment score was inactive: 0.739.
For CYVYYYSYLLK [PTEN_Y178_R173C], the enrichment score was inactive: 1.14.
On the same count and under the same terms, as for ERNARYRTPKI [PTK2B_Y699], the figure is inactive: 0.315.
Still for that read-out and setting: for DLDLTSIFPNI [PTEN_Y27_Y27S_YF] the value was inactive: 1; for RRFLFYFSFLL [PTEN_Y177_V175L_YF], inactive: 0.345; for NHFKIHNLCAE [PTEN_Y68_Y68H_YF], inactive: 1.03.
The same measure, in the same setting: for TLNFFYQQVKS [PTK2_Y148] the value was inactive: 1.31.
As to LFFFSYLLKNH [PTEN_Y180_V175L_YF], the enrichment score is inactive: 1.16.
The same measure, in the same setting: for NHYKIYNLCAE [PTEN_Y68] the value was inactive: 0.916; for RREGVYRNNID [PTEN_Y46_L42R], inactive: 0.248.
Same read-out and setting: as for PFVFFYSFLLK [PTEN_Y178_R173P_YF], the figure is inactive: 1.32; as for FGLDRYQCDCT [PTGS1_Y54], inactive: 1.47.
On the same count and under the same terms, for HFVFFYSFLLK [PTEN_Y178_R173H_YF] the value was inactive: 1.13; for EDKFMYFEFPQ [PTEN_Y240], inactive: 1.08; for KNKNRSKNILP [PTPN11_Y279_Y279S], inactive: 0.552.
On to ERNAHYRTPKI [PTK2B_Y699_R698H], for which the enrichment score was inactive: 0.565.

Another experiment deals with SHP2 N-SH2 domain wild-type. The experiment is described as above. As to conditions: peptide library: pTyr-Var.
As to EDKFMYSEFPQ [PTEN_Y240_F241S], the enrichment score was inactive: 0.638.
In the case of ECKHLYSRKEG [PTPN11_Y263_L261H], the enrichment score was inactive: 0.978.
Still for that read-out and setting: for EDKFMYLEFPQ [PTEN_Y240_F241L] the value was inactive: 0.951; for RCYVYYYSYLL [PTEN_Y177_R173C], inactive: 0.886.
On the same count and under the same terms, as for CYVYYYSYLLK [PTEN_Y178_R173C], the figure is inactive: 1.26; as for ERNARYRTPKI [PTK2B_Y699], inactive: 0.342.
On the same count and under the same terms, for DLDLTSIFPNI [PTEN_Y27_Y27S_YF] the value was inactive: 1.1; for RRFLFYFSFLL [PTEN_Y177_V175L_YF], inactive: 0.305.
As for NHFKIHNLCAE [PTEN_Y68_Y68H_YF], the enrichment score is inactive: 0.87.
On the same count and under the same terms, for TLNFFYQQVKS [PTK2_Y148] the value was inactive: 1.34; for LFFFSYLLKNH [PTEN_Y180_V175L_YF], inactive: 1.15.
For the molecule NHYKIYNLCAE [PTEN_Y68], the enrichment score was inactive: 0.995.
Same read-out and setting: for RREGVYRNNID [PTEN_Y46_L42R] the value was inactive: 0.373; for PFVFFYSFLLK [PTEN_Y178_R173P_YF], inactive: 1.32.
As for FGLDRYQCDCT [PTGS1_Y54], the enrichment score is inactive: 1.72.
The same measure, in the same setting: for HFVFFYSFLLK [PTEN_Y178_R173H_YF] the value was inactive: 1.65.
Same read-out and setting: as for EDKFMYFEFPQ [PTEN_Y240], the figure is inactive: 1.24; as for KNKNRSKNILP [PTPN11_Y279_Y279S], inactive: 0.332.
Regarding ERNAHYRTPKI [PTK2B_Y699_R698H], the enrichment score is inactive: 0.685.
